Laboratory results from the supplement of paper PMC7826260.
Some of the results follow. Cleavage of a single-stranded DNA pool by Rep nickase domains was read by sequencing (3 µM enzyme, 1 h, 37 °C); shown is the middle of each 90-letter strand. Numbers give uncut DNA relative to the enzyme-free pool, as log2; more negative means more cut, near 0 not cut, and no call is made. Because reads are shares of a total, they shift together; where an enzyme cuts many sequences, the uncut ones exceed 0.

Experiments:
Assay in all cases: uncleaved DNA left, log2 of reads against the no-enzyme library (log2 ratio); higher = less cleavage (more negative = more Rep cleavage of the k-mer); sequences stand for … in CTCGTCCG…ACCGGAGA
[1] = test system: T1, Rep nickase domain of Muscovy duck circovirus
T1 sequence (protein, residues 1-111, tag omitted): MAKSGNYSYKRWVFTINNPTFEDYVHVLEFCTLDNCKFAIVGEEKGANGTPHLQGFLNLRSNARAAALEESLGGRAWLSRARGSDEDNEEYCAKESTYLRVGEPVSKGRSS
Procedure: (§1)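 A pool of 90-nt single-stranded DNAs with seven random bases just before the constant AC of the nick site (name = the seven bases) was cut by 3 µM recombinant His6-SUMO-tagged Rep nickase domain (300 nM DNA, 50 mM HEPES pH 8.0, 50 mM NaCl, 1 mM MnCl2, 1 h, 37 °C, three replicates). Uncut DNA was amplified and sequenced.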

[2] = test system: T2, Rep nickase domain of banana bunchy top virus
T2 sequence (protein, residues 1-94, tag omitted): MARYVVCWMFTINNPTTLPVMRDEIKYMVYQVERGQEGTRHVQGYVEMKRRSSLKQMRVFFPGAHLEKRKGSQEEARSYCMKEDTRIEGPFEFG
Procedure: as §1

[3] = test system: T3, Rep nickase domain of cabbage leaf curl virus
T3 sequence (protein, residues 1-116, tag omitted): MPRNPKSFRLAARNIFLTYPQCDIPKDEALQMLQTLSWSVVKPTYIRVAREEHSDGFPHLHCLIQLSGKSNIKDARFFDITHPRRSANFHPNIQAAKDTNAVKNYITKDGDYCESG
Procedure: as §1

[4] = test system: T4, Rep nickase domain of chickpea chlorotic dwarf virus
T4 sequence (protein, residues 1-124, tag omitted): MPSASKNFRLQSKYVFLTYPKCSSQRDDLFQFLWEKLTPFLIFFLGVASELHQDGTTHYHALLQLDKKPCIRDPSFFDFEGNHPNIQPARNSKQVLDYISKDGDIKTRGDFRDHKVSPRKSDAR
Procedure: as §1

[5] = test system: T5, Rep nickase domain of faba bean necrotic yellows virus
T5 sequence (protein, residues 1-98, tag omitted): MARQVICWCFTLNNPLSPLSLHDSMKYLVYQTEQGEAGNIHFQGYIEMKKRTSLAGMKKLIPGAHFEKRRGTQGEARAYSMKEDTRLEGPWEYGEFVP
Procedure: as §1

[6] = test system: T6, Rep nickase domain of maize striate mosaic virus
T6 sequence (protein, residues 1-117, tag omitted): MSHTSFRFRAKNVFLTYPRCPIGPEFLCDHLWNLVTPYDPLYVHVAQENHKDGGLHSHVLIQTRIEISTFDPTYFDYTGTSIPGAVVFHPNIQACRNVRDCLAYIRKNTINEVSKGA
Procedure: as §1

[7] = test system: T7, Rep nickase domain of porcine circovirus 2
T7 sequence (protein, residues 2-116, tag omitted): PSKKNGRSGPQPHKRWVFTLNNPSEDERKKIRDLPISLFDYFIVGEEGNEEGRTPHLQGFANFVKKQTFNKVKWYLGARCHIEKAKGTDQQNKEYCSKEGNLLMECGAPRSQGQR
Procedure: as §1

[8] = test system: T8, Rep nickase domain of tomato golden mosaic virus
T8 sequence (protein, residues 1-124, tag omitted): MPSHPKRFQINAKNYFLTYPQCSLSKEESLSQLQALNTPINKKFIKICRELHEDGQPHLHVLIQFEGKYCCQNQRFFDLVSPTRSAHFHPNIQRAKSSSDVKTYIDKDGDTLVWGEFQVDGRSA
Procedure: as §1

[9] = test system: T9, Rep nickase domain of tomato yellow leaf curl virus
T9 sequence (protein, residues 1-136, tag omitted): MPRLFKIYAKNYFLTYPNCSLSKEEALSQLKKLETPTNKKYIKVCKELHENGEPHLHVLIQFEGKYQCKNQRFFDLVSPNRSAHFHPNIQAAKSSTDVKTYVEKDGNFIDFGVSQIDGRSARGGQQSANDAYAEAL
Procedure: as §1

[10] = test system: T10, Rep nickase domain of wheat dwarf virus
T10 sequence (protein, residues 1-137, tag omitted): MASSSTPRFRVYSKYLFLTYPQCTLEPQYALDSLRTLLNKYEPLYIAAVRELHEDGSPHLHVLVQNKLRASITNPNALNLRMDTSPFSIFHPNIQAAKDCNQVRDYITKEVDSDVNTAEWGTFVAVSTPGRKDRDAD
Procedure: as §1

Row | Sequence | uncleaved DNA left (log2) [1] | uncleaved DNA left (log2) [2] | uncleaved DNA left (log2) [3] | uncleaved DNA left (log2) [4] | uncleaved DNA left (log2) [5] | uncleaved DNA left (log2) [6] | uncleaved DNA left (log2) [7] | uncleaved DNA left (log2) [8] | uncleaved DNA left (log2) [9] | uncleaved DNA left (log2) [10]
1 | CTCCAGC | -0.0404 | -0.0011 | -0.157 | -0.43 | -0.00382 | -0.95 | 0.0614 | -0.0212 | -0.0334 | -0.0232
2 | ACATCAA | -0.0297 | 0.0378 | -0.102 | -0.285 | -0.103 | -0.546 | 0.11 | 0.0299 | 0.00957 | 0.0395
3 | GCCGGCA | 0.0292 | 0.0569 | 0.214 | 0.502 | -0.00582 | 0.224 | 0.0564 | 0.0851 | -0.0453 | 0.0238
4 | ACAACGT | -0.0246 | -0.106 | -0.189 | -0.464 | -0.141 | -0.981 | 0.0829 | 0.0367 | -0.134 | -0.209
5 | AGGTACG | -0.0246 | 0.00693 | -0.869 | -0.601 | -0.0393 | -0.977 | 0.193 | -0.0754 | -0.0855 | -0.117
6 | CGGTAGG | -0.0684 | -0.02 | -0.0612 | 0.458 | -0.0834 | -0.0641 | 0.0839 | 0.02 | -0.158 | -0.112
7 | AACTCAA | -0.0307 | -0.00811 | -0.0295 | -0.768 | -0.029 | -0.636 | -0.892 | 0.00367 | -0.0778 | -0.0318
8 | AAGCTCA | 0.0812 | 0.14 | 0.126 | -1.31 | 0.106 | 0.575 | -0.642 | 0.0401 | 0.0888 | 0.17
9 | GTTGTCC | -0.0114 | 0.0294 | 0.242 | 0.698 | -0.00438 | 1.35 | 0.0485 | -0.0359 | -0.0154 | 0.054
10 | CGCAAGT | 0.0282 | -0.0397 | 0.046 | -0.128 | 0.022 | -0.456 | 0.043 | -0.158 | 0.0347 | -0.0169
11 | AGCTATA | -0.0703 | -0.00459 | -0.129 | -0.418 | -0.000503 | 0.173 | -0.873 | -0.00629 | -0.0631 | 0.107
12 | ACACGTC | 0.0417 | -0.0435 | -0.313 | -0.506 | 0.13 | -0.862 | 0.128 | 0.0246 | -0.0752 | -0.0136
13 | AGTGCCT | -0.0278 | 0.00265 | 0.0945 | 0.0845 | -0.0672 | 0.732 | -2.16 | -0.000116 | -0.0384 | -0.00785
14 | GCTACCA | -0.133 | -0.0429 | 0.00907 | -0.828 | -0.0741 | 0.301 | -0.234 | -0.0542 | -0.0803 | -0.0269
15 | CCGTGAT | -0.0282 | -0.132 | -0.568 | -0.0356 | -0.195 | 1.17 | -2.38 | -0.207 | -0.0966 | -0.544
16 | GTCTCCG | 0.06 | 0.0493 | 0.188 | 0.557 | -0.0288 | 1.11 | 0.0488 | 0.11 | -0.0493 | 0.0312
17 | AGGACAT | -0.0322 | 0.0376 | 0.876 | 2.24 | -0.0666 | 2.33 | 0.2 | -0.0322 | -0.053 | 0.157
18 | ACCTTTC | -0.0611 | -0.124 | -0.348 | -0.477 | -0.099 | -1.04 | -0.00364 | -0.0285 | -0.0973 | -0.229
19 | TTCCCTA | -0.182 | -0.118 | 0.0578 | -0.655 | -0.105 | -0.0625 | -0.482 | -0.177 | -0.12 | -0.128
20 | GCCGGGA | 0.0539 | 0.163 | 0.827 | 1.14 | 0.0786 | 1.86 | 0.205 | 0.148 | 0.0415 | 0.165
21 | TACTATA | -1.44 | -0.318 | -0.507 | -2.87 | -0.152 | -0.648 | -3.17 | -0.0772 | -0.0191 | -0.118
22 | GTGCCGG | 0.17 | -0.0479 | 0.478 | 1.18 | 0.0201 | 1.51 | -0.00502 | 0.138 | 0.0654 | 0.0153
23 | AATCACT | -0.474 | -0.0142 | -0.829 | -3.09 | 0.113 | -0.998 | -3.32 | -0.0856 | -0.0413 | -0.0571
24 | CCCGGCA | -0.0721 | 0.00563 | -0.119 | -0.355 | 0.0349 | -0.781 | -0.0922 | -0.0195 | -0.0472 | -0.111
25 | ACTGTAG | 0.0772 | 0.08 | -0.629 | -0.508 | 0.149 | -1.09 | 0.196 | 0.168 | 0.136 | 0.0342
26 | CTGTAAC | 0.0848 | 0.0702 | -0.34 | -1.64 | 0.128 | -0.511 | 0.0168 | 0.0461 | -0.0351 | -0.102
27 | GACGTTA | 0.176 | 0.0909 | 0.364 | 0.224 | 0.172 | 1.13 | 0.094 | 0.136 | 0.00677 | 0.0648
28 | CACACGC | -0.102 | -0.0297 | -0.232 | -0.478 | -0.00826 | -1.01 | 0.0846 | -0.0433 | -0.0128 | -0.0884
29 | AAGCCGA | -0.0187 | 0.00903 | -0.391 | -0.551 | -0.0453 | -0.845 | 0.00377 | 0.0281 | -0.0844 | -0.0119
